From the supplement of paper PMC4604168 (melanoma cell lines)
The list shows a part of the results. Single values are uncertain, as repeats are few or missing.

Key:
Test in all cases: cell count relative to DMSO control; melanoma cells; higher = more viable cells
Conditions in all cases: library dose: standard library concentration; 72 h
[1] = system: G361
[2] = system: IPC-298
[3] = system: IST-MEL1
[4] = system: LB2518-MEL
[5] = system: LOXIMVI
[6] = system: MEL-HO
[7] = system: MZ2-MEL
[8] = system: MeWo
[9] = system: RPMI7951
[10] = system: RVH-421
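Note: cells treated in 1,536-well plates, then fixed and DAPI-stained, with nuclei counted from automated high-throughput microscope images.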

| SMILES | cell count [1] | cell count [2] | cell count [3] | cell count [4] | cell count [5] | cell count [6] | cell count [7] | cell count [8] | cell count [9] | cell count [10] |
| --- | --- | --- | --- | --- | --- | --- | --- | --- | --- | --- |
| Cn1c(=O)n(-c2ccc(C(C)(C)C#N)cc2)c2c3cc(-c4cnc5ccccc5c4)ccc3ncc21 + NC(=O)Nc1cc(-c2cccc(F)c2)sc1C(=O)N[C@H]1CCCNC1 [AZD7762] (first compound 0.02 µM, partner dose 0.1 µM) | 81.3% | 68.3% | 71.4% | 50.7% | 77.6% | 55.5% | 84.7% | 47.9% | 30.7% | 86.4% |
| CC(C)C[C@H](NC(=O)[C@H](Cc1ccccc1)NC(=O)c1cnccn1)B(O)O [Bortezomib] + CN(C)S(=O)(=O)c1ccc2c(c1)/C(=C/c1cc3c([nH]1)CCCC3)C(=O)N2 [SU6656] (first compound 0.005 µM, partner dose 2 µM) | 0.435% | 15.6% | 12.1% | 5.38% | 14.9% | 32.3% | 4.13% | 14.7% | 2.55% | 7.18% |
| Cn1c(=O)n(-c2ccc(C(C)(C)C#N)cc2)c2c3cc(-c4cnc5ccccc5c4)ccc3ncc21 + CC(C)CCN1c2nc(Nc3cc(F)c(O)c(F)c3)ncc2N(C)C(=O)C1C [BID1870] (first compound 0.02 µM, partner dose 1 µM) | 49.4% | 58.4% | 64.2% | 99.4% | 81.2% | 61.9% | 84.6% | 53.2% | 84% | 76.2% |
| COc1ccc(C2=N[C@@H](c3ccc(Cl)cc3)[C@@H](c3ccc(Cl)cc3)N2C(=O)N2CCNC(=O)C2)c(OC(C)C)c1 [Nutlin-3] + COCC[n+]1c2c(n(Cc3cnccn3)c1C)C(=O)c1ccccc1C2=O [YM155] (first compound 0.5 µM, partner dose 0.002 µM) | 70.3% | 40.7% | 44.7% | 13.1% | 40.2% | 93.2% | 23% | 44.9% | 29.6% | 60.1% |
| CC(C)C[C@H](NC(=O)[C@H](Cc1ccccc1)NC(=O)c1cnccn1)B(O)O [Bortezomib] + Cc1ccc(NC(=O)c2cccc(N(C)C)c2)cc1NC(=O)c1ccc(O)cc1 [ZM336372] (first compound 0.005 µM, partner dose 10 µM) | 1.24% | 20.1% | 12.1% | 1.49% | 24.9% | 48.1% | 7.85% | 18.6% | 4.91% | 6.4% |
| Cc1cn(-c2cc(NC(=O)c3ccc(C)c(Nc4nccc(-c5cccnc5)n4)c3)cc(C(F)(F)F)c2)cn1 [nilotinib] + COc1ccc(-c2ccc3c(N4CCOCC4)nc(N4C[C@@H](C)O[C@@H](C)C4)nc3n2)cc1CO [KU0063794] (first compound 1 µM, partner dose 0.1 µM) | 77% | 76.6% | 100% | 91% | 109% | 80.1% | 98.1% |  | 76.7% | 95.5% |
| Cn1c(=O)n(-c2ccc(C(C)(C)C#N)cc2)c2c3cc(-c4cnc5ccccc5c4)ccc3ncc21 + CC(C)(C)c1cnc(CSc2cnc(NC(=O)C3CCNCC3)s2)o1 [SNS-032] (first compound 0.02 µM, partner dose 0.05 µM) | 57.5% | 94% | 71.6% |  | 62.4% | 67.4% |  | 63% | 46.7% | 94.2% |
| Cc1cn(-c2cc(NC(=O)c3ccc(C)c(Nc4nccc(-c5cccnc5)n4)c3)cc(C(F)(F)F)c2)cn1 [nilotinib] + CCCS(=O)(=O)Nc1ccc(F)c(C(=O)c2c[nH]c3ncc(Cl)cc23)c1F [PLX4720] (first compound 1 µM, partner dose 0.4 µM) | 70% | 109% | 88.8% |  | 117% | 76.5% |  | 130% | 115% | 65% |
| Cc1cc(Nc2cc(N3CCN(C)CC3)nc(/C=C/c3ccccc3)n2)n[nH]1 + CNC(=O)c1cc(Oc2ccc(NC(=O)Nc3ccc(Cl)c(C(F)(F)F)c3)cc2)ccn1 [sorafenib] (first compound 0.2 µM, partner dose 2 µM) | 84.3% | 73.7% | 105% | 67.2% | 96.5% | 92.2% | 92.2% | 84.5% | 58.9% | 102% |
| Cc1cc(Nc2cc(N3CCN(C)CC3)nc(/C=C/c3ccccc3)n2)n[nH]1 + NCC(=O)Nc1ccc(-n2nc(C(F)(F)F)cc2-c2ccc3c(ccc4ccccc43)c2)cc1 [OSU03012] (first compound 0.2 µM, partner dose 5 µM) | 78% | 63.1% | 92.2% |  | 95% | 91.1% |  | 98.8% | 65.7% | 86% |
| Cc1cn(-c2cc(NC(=O)c3ccc(C)c(Nc4nccc(-c5cccnc5)n4)c3)cc(C(F)(F)F)c2)cn1 [nilotinib] + C[C@@H]1CCN(C(=O)CC#N)C[C@@H]1N(C)c1ncnc2[nH]ccc12 [CP690550] (first compound 1 µM, partner dose 5 µM) | 99% | 121% | 105% | 89.4% | 100% | 104% | 122% | 90.9% | 79% | 93.6% |
